# Measurements as given in the supplement of paper PMC8728848.
# Some of the results follow.
# B1: LBL-152 (Laetiporus bicolor), B0D650 (protein)
# chain: MSNEYNPPLGIAFRLCGLASDRVLFSRVSPSPEVFHHPKSEVYPDQWFVAIPGSGQNAGCYAIKSKNTGKVLFSRMSPDPRVGHIDGDGKYPDNWFKFEAGSGKYAGYFRLRAVASDTVLVSRTSTGTDTQVINYPATSAKYDDQYFTILFDHHHHHH
# Legend:
# Assay in all cases: glycan array binding signal (z-score within array); higher = stronger binding
# Conditions in all cases: glycan notation: IUPAC condensed, linker removed
# [1] = target: Gal(b1-4)GlcNAc(b1-2)[Gal(b1-4)GlcNAc(b1-6)]Man(a1-6)[Gal(b1-4)GlcNAc(b1-2)Man(a1-3)]Man(b1-4)GlcNAc(b1-4)[Fuc(a1-6)]GlcNAc
# Method in brief: (§1)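 Columns mapping to the same glycan were averaged after glycan names were converted to IUPAC-condensed notation. The data come from 3228 arrays in the Consortium for Functional Glycomics database, limited to those with an available protein sequence. Binding is reported as a within-array Z-score averaged across arrays of one protein sequence and across linkers.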
# [2] = target: Gal(b1-4)GlcNAc(b1-2)[Gal(b1-4)GlcNAc(b1-6)]Man(a1-6)[GlcNAc(b1-4)][Gal(b1-4)GlcNAc(b1-2)Man(a1-3)]Man(b1-4)GlcNAc(b1-4)GlcNAc
# Method in brief: as §1
# [3] = target: Gal(b1-4)GlcNAc(b1-2)[Gal(b1-4)GlcNAc(b1-6)]Man(a1-6)[GlcNAc(b1-4)][Gal(b1-4)GlcNAc(b1-2)[Gal(b1-4)GlcNAc(b1-4)]Man(a1-3)]Man(b1-4)GlcNAc(b1-4)[Fuc(a1-6)]GlcNAc
# Method in brief: as §1
# [4] = target: Gal(b1-4)GlcNAc(b1-3)Gal(b1-3)GalNAc
# Method in brief: as §1
# [5] = target: Gal(b1-4)GlcNAc(b1-3)Gal(b1-3)GlcNAc
# Method in brief: as §1
# [6] = target: Gal(b1-4)GlcNAc(b1-3)Gal(b1-4)Glc
# Method in brief: as §1
# [7] = target: Gal(b1-4)GlcNAc(b1-3)Gal(b1-4)GlcNAc
# Method in brief: as §1
# [8] = target: Gal(b1-4)GlcNAc(b1-3)Gal(b1-4)GlcNAc(b1-2)Man(a1-3)[Gal(b1-4)GlcNAc(b1-3)Gal(b1-4)GlcNAc(b1-2)Man(a1-6)]Man(b1-4)GlcNAc(b1-4)GlcNAc
# Method in brief: as §1
# [9] = target: Gal(b1-4)GlcNAc(b1-3)Gal(b1-4)GlcNAc(b1-2)Man(a1-3)[Gal(b1-4)GlcNAc(b1-3)Gal(b1-4)GlcNAc(b1-2)Man(a1-6)]Man(b1-4)GlcNAc(b1-4)[Fuc(a1-6)]GlcNAc
# Method in brief: as §1
# [10] = target: Gal(b1-4)GlcNAc(b1-3)Gal(b1-4)GlcNAc(b1-2)[Gal(b1-4)GlcNAc(b1-3)Gal(b1-4)GlcNAc(b1-6)]Man(a1-6)[Gal(b1-4)GlcNAc(b1-3)Gal(b1-4)GlcNAc(b1-2)Man(a1-3)]Man(b1-4)GlcNAc(b1-4)GlcNAc
# Method in brief: as §1
# [11] = target: Gal(b1-4)GlcNAc(b1-3)Gal(b1-4)GlcNAc(b1-2)[Gal(b1-4)GlcNAc(b1-3)Gal(b1-4)GlcNAc(b1-6)]Man(a1-6)[Gal(b1-4)GlcNAc(b1-3)Gal(b1-4)GlcNAc(b1-2)Man(a1-3)]Man(b1-4)GlcNAc(b1-4)[Fuc(a1-6)]GlcNAc
# Method in brief: as §1
# [12] = target: Gal(b1-4)GlcNAc(b1-3)Gal(b1-4)GlcNAc(b1-3)Gal(b1-4)GlcNAc
# Method in brief: as §1
# [13] = target: Gal(b1-4)GlcNAc(b1-3)Gal(b1-4)GlcNAc(b1-3)Gal(b1-4)GlcNAc(b1-2)Man(a1-3)[Gal(b1-4)GlcNAc(b1-3)Gal(b1-4)GlcNAc(b1-3)Gal(b1-4)GlcNAc(b1-2)Man(a1-6)]Man(b1-4)GlcNAc(b1-4)GlcNAc
# Method in brief: as §1
# [14] = target: Gal(b1-4)GlcNAc(b1-3)Gal(b1-4)GlcNAc(b1-3)Gal(b1-4)GlcNAc(b1-2)Man(a1-3)[Gal(b1-4)GlcNAc(b1-3)Gal(b1-4)GlcNAc(b1-3)Gal(b1-4)GlcNAc(b1-2)Man(a1-6)]Man(b1-4)GlcNAc(b1-4)[Fuc(a1-6)]GlcNAc
# Method in brief: as §1
# [15] = target: Gal(b1-4)GlcNAc(b1-3)Gal(b1-4)GlcNAc(b1-3)Gal(b1-4)GlcNAc(b1-2)[Gal(b1-4)GlcNAc(b1-3)Gal(b1-4)GlcNAc(b1-3)Gal(b1-4)GlcNAc(b1-6)]Man(a1-6)[Gal(b1-4)GlcNAc(b1-3)Gal(b1-4)GlcNAc(b1-3)Gal(b1-4)GlcNAc(b1-2)Man(a1-3)]Man(b1-4)GlcNAc(b1-4)[Fuc(a1-6)]GlcNAc
# Method in brief: as §1
# [16] = target: Gal(b1-4)GlcNAc(b1-3)Gal(b1-4)GlcNAc(b1-3)Gal(b1-4)GlcNAc(b1-3)Gal(b1-4)GlcNAc(b1-2)Man(a1-3)[Gal(b1-4)GlcNAc(b1-3)Gal(b1-4)GlcNAc(b1-3)Gal(b1-4)GlcNAc(b1-3)Gal(b1-4)GlcNAc(b1-2)Man(a1-6)]Man(b1-4)GlcNAc(b1-4)GlcNAc
# Method in brief: as §1
# [17] = target: Gal(b1-4)GlcNAc(b1-3)Gal(b1-4)GlcNAc(b1-3)Gal(b1-4)GlcNAc(b1-3)Gal(b1-4)GlcNAc(b1-2)Man(a1-3)[Gal(b1-4)GlcNAc(b1-3)Gal(b1-4)GlcNAc(b1-3)Gal(b1-4)GlcNAc(b1-3)Gal(b1-4)GlcNAc(b1-2)Man(a1-6)]Man(b1-4)GlcNAc(b1-4)[Fuc(a1-6)]GlcNAc
# Method in brief: as §1
# [18] = target: Gal(b1-4)GlcNAc(b1-3)Gal(b1-4)GlcNAc(b1-3)Gal(b1-4)GlcNAc(b1-3)Gal(b1-4)GlcNAc(b1-2)[Gal(b1-4)GlcNAc(b1-3)Gal(b1-4)GlcNAc(b1-3)Gal(b1-4)GlcNAc(b1-3)Gal(b1-4)GlcNAc(b1-6)]Man(a1-6)[Gal(b1-4)GlcNAc(b1-3)Gal(b1-4)GlcNAc(b1-3)Gal(b1-4)GlcNAc(b1-3)Gal(b1-4)GlcNAc(b1-2)Man(a1-3)]Man(b1-4)GlcNAc(b1-4)[Fuc(a1-6)]GlcNAc
# Method in brief: as §1
# [19] = target: Gal(b1-4)GlcNAc(b1-3)Gal(b1-4)GlcNAc(b1-3)Gal(b1-4)GlcNAc(b1-3)Gal(b1-4)GlcNAc(b1-3)Gal(b1-4)GlcNAc(b1-2)Man(a1-3)[Gal(b1-4)GlcNAc(b1-3)Gal(b1-4)GlcNAc(b1-3)Gal(b1-4)GlcNAc(b1-3)Gal(b1-4)GlcNAc(b1-3)Gal(b1-4)GlcNAc(b1-2)Man(a1-6)]Man(b1-4)GlcNAc(b1-4)GlcNAc
# Method in brief: as §1
# [20] = target: Gal(b1-4)GlcNAc(b1-3)Gal(b1-4)GlcNAc(b1-3)Gal(b1-4)GlcNAc(b1-3)Gal(b1-4)GlcNAc(b1-3)Gal(b1-4)GlcNAc(b1-2)Man(a1-3)[Gal(b1-4)GlcNAc(b1-3)Gal(b1-4)GlcNAc(b1-3)Gal(b1-4)GlcNAc(b1-3)Gal(b1-4)GlcNAc(b1-3)Gal(b1-4)GlcNAc(b1-2)Man(a1-6)]Man(b1-4)GlcNAc(b1-4)[Fuc(a1-6)]GlcNAc
# Method in brief: as §1
# [21] = target: Gal(b1-4)GlcNAc(b1-3)Gal(b1-4)GlcNAc(b1-3)Gal(b1-4)GlcNAc(b1-3)Gal(b1-4)GlcNAc(b1-3)Gal(b1-4)GlcNAc(b1-2)[Gal(b1-4)GlcNAc(b1-3)Gal(b1-4)GlcNAc(b1-3)Gal(b1-4)GlcNAc(b1-3)Gal(b1-4)GlcNAc(b1-3)Gal(b1-4)GlcNAc(b1-6)]Man(a1-6)[Gal(b1-4)GlcNAc(b1-3)Gal(b1-4)GlcNAc(b1-3)Gal(b1-4)GlcNAc(b1-3)Gal(b1-4)GlcNAc(b1-3)Gal(b1-4)GlcNAc(b1-2)Man(a1-3)]Man(b1-4)GlcNAc(b1-4)[Fuc(a1-6)]GlcNAc
# Method in brief: as §1
# [22] = target: Gal(b1-4)GlcNAc(b1-3)Gal(b1-4)GlcNAc(b1-3)Gal(b1-4)GlcNAc(b1-3)Gal(b1-4)GlcNAc(b1-3)Gal(b1-4)GlcNAc(b1-3)Gal(b1-4)GlcNAc(b1-2)Man(a1-3)[Gal(b1-4)GlcNAc(b1-3)Gal(b1-4)GlcNAc(b1-3)Gal(b1-4)GlcNAc(b1-3)Gal(b1-4)GlcNAc(b1-3)Gal(b1-4)GlcNAc(b1-3)Gal(b1-4)GlcNAc(b1-2)Man(a1-6)]Man(b1-4)GlcNAc(b1-4)GlcNAc
# Method in brief: as §1
# [23] = target: Gal(b1-4)GlcNAc(b1-3)Gal(b1-4)GlcNAc(b1-3)GalNAc
# Method in brief: as §1
binder,measurement,setting,value
B1,glycan array binding signal (z-score),[1],-0.009
same,glycan array binding signal (z-score),[2],-0.133
same,glycan array binding signal (z-score),[3],0.289
same,glycan array binding signal (z-score),[4],-0.156
same,glycan array binding signal (z-score),[5],-0.154
same,glycan array binding signal (z-score),[6],-0.149
same,glycan array binding signal (z-score),[7],-0.11
same,glycan array binding signal (z-score),[8],0.44
same,glycan array binding signal (z-score),[9],1.07
same,glycan array binding signal (z-score),[10],-0.112
same,glycan array binding signal (z-score),[11],0.973
same,glycan array binding signal (z-score),[12],-0.026
same,glycan array binding signal (z-score),[13],2.62
same,glycan array binding signal (z-score),[14],5.46
same,glycan array binding signal (z-score),[15],4.41
same,glycan array binding signal (z-score),[16],5.39
same,glycan array binding signal (z-score),[17],8.72
same,glycan array binding signal (z-score),[18],6.24
same,glycan array binding signal (z-score),[19],10.6
same,glycan array binding signal (z-score),[20],9.73
same,glycan array binding signal (z-score),[21],7.26
same,glycan array binding signal (z-score),[22],5.94
same,glycan array binding signal (z-score),[23],-0.155
